Test results as given in ChEMBL document CHEMBL3112442, “Anilino-monoindolylmaleimides as potent and selective JAK3 inhibitors” (Bioorg Med Chem Lett, 2014).

Each molecule was assayed against Tyrosine-protein kinase JAK2 (Homo sapiens, UniProt O60674).
Sequence of Tyrosine-protein kinase JAK2 (O60674 whole entry): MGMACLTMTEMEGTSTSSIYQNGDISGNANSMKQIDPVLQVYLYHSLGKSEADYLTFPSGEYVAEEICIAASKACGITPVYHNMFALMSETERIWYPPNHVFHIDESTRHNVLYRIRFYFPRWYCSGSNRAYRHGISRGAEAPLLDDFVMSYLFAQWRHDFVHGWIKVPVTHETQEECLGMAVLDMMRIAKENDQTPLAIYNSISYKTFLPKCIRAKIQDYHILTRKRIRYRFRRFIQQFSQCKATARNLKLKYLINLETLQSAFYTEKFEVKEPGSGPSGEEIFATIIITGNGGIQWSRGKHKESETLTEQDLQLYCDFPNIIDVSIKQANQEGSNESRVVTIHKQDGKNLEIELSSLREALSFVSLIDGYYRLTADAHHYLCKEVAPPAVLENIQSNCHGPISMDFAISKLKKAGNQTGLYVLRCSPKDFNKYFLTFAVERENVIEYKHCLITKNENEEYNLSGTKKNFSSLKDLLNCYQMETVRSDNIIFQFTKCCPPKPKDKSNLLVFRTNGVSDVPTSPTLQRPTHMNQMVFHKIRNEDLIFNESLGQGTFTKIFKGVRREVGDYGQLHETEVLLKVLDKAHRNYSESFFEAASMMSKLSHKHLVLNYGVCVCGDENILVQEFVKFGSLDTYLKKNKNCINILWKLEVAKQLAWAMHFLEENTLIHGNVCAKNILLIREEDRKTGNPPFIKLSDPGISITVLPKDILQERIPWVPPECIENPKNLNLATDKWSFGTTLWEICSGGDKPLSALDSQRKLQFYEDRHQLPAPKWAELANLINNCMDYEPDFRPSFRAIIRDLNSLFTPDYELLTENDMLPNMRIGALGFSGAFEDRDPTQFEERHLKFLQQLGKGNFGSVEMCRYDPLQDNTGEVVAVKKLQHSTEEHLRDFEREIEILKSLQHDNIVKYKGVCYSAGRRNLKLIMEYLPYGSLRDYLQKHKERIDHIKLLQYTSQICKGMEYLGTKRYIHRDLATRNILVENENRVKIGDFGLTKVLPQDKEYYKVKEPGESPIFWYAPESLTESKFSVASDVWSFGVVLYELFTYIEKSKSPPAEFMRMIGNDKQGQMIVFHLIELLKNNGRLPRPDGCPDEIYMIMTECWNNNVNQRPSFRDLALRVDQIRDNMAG

SMILES	IC50 [µM]
O=C1NC(=O)C(c2c[nH]c3ccccc23)=C1Nc1cccc(C2CCN(c3ccnc(F)c3)CC2)c1	> 10
O=C1NC(=O)C(c2c[nH]c3ccccc23)=C1Nc1cccc(C2CN(c3ccnc(F)c3)C2)c1	> 10
O=C1NC(=O)C(c2c[nH]c3ccccc23)=C1Nc1cccc(OCCCn2ccnc2)c1	> 10
O=C1NC(=O)C(c2c[nH]c3ccccc23)=C1Nc1cccc(OCCn2ccnc2)c1	> 10
O=C1NC(=O)C(c2c[nH]c3ccccc23)=C1Nc1ccc(OCCn2ccnc2)cc1	> 10
O=C1NC(=O)C(c2c[nH]c3ccccc23)=C1Nc1ccc(OCCCn2ccnc2)cc1	> 10
O=C1NC(=O)C(c2c[nH]c3ccccc23)=C1Nc1ccccc1OCCn1ccnc1	> 10
O=C1NC(=O)C(c2c[nH]c3ccccc23)=C1Nc1ccccc1OCCNc1ccnc(F)c1	> 10
O=C1C=C(Nc2cccc(OCCNc3ccnc(F)c3)c2)C(=O)N1	> 10
O=C1NC(=O)C(c2c[nH]c3ccccc23)=C1Nc1cccc(C2CCN(c3ccnc(F)c3)C2)c1 (racemic)	> 10
O=C1NC(=O)C(c2c[nH]c3ccccc23)=C1Nc1cccc(OC2CCCN(c3ccnc(F)c3)C2)c1 (racemic)	> 10

More lines, now with the values ahead:

IC50 [µM]	SMILES
> 10	CC(C)(O)C(=O)N1CCN(c2ccc(C(F)(F)F)c(C3=C(c4c[nH]c5ccccc45)C(=O)NC3=O)c2)CC1
1.48	O=C1NC(=O)C(c2c[nH]c3ccccc23)=C1Nc1cccc(O[C@H]2CCN(c3ccnc(F)c3)C2)c1
> 10	O=C1NC(=O)C(c2c[nH]c3ccccc23)=C1Nc1cccc(O[C@@H]2CCN(c3ccnc(F)c3)C2)c1
1.27	O=C1NC(=O)C(c2c[nH]c3ccccc23)=C1Nc1ccc(OCCCNc2ccnc(F)c2)cc1
9.69	O=C1NC(=O)C(c2c[nH]c3ccccc23)=C1Nc1ccc(OCCNc2ccnc(F)c2)cc1
2.13	O=C1NC(=O)C(c2c[nH]c3ccccc23)=C1Nc1cccc(OCCNc2ccnc(F)c2)c1
1.64	Cn1cc(C2=C(Nc3cccc(OCCNc4ccnc(F)c4)c3)C(=O)NC2=O)c2ccccc21
0.49	CN(CCOc1cccc(NC2=C(c3c[nH]c4ccccc34)C(=O)NC2=O)c1)c1ccnc(F)c1
11.1	O=C1NC(=O)C(c2ccccc2)=C1Nc1cccc(OCCNc2ccnc(F)c2)c1
1.27	O=C1NC(=O)C(c2c[nH]c3ccccc23)=C1Nc1cccc(OC2CCN(c3ccnc(F)c3)CC2)c1
3.85	O=C1NC(=O)C(c2cn(CCCn3ccnc3)c3ccccc23)=C1Nc1ccccc1
1.24	O=C1NC(=O)C(c2c[nH]c3ccccc23)=C1Nc1cccc(OC2CCN(c3ccnc(F)c3)C2)c1 (racemic)

These molecules were tested against Non-receptor tyrosine-protein kinase TYK2 (Homo sapiens, UniProt P29597).
Sequence of Non-receptor tyrosine-protein kinase TYK2 (P29597 whole entry): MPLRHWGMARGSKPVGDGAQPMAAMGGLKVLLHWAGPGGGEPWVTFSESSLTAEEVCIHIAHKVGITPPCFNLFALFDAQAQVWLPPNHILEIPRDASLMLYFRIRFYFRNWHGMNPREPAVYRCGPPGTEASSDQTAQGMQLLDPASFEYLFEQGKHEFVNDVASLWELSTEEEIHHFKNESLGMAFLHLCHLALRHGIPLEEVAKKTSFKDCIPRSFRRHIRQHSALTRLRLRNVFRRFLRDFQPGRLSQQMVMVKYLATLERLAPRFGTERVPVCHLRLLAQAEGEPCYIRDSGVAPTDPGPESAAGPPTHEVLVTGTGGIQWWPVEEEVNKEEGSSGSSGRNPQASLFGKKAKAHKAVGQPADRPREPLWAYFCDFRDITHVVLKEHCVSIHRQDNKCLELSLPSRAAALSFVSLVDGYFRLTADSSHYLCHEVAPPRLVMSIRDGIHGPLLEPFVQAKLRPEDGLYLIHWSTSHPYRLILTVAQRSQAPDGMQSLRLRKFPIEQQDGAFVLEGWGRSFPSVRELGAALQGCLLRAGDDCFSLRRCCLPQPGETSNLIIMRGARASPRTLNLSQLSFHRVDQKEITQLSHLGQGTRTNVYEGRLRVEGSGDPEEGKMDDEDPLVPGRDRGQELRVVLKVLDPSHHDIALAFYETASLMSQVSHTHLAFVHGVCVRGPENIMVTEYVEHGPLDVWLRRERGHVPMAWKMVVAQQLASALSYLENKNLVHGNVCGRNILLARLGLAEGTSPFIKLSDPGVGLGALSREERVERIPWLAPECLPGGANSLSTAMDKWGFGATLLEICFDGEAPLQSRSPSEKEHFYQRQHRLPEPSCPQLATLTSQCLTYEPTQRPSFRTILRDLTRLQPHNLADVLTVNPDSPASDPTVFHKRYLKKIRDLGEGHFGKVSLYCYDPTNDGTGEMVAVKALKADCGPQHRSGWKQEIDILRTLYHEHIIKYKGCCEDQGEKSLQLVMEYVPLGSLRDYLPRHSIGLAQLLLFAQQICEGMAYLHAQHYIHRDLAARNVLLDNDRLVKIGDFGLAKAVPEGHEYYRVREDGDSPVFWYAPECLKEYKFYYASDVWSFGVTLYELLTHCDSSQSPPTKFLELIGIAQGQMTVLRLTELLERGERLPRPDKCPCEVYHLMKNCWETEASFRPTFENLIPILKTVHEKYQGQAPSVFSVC

IC50 [µM]	SMILES
5.83	O=C1NC(=O)C(c2c[nH]c3ccccc23)=C1Nc1cccc(O[C@H]2CCN(c3ccnc(F)c3)C2)c1
